Results taken from PubChem BioAssay AID686979 (National Center for Advancing Translational Sciences (NCATS), 2013).
The campaign covered roughly 420,000 compounds. About 50,000 (12%) were called active. The shares of active, inactive and inconclusive entries below differ from those in the screen. Calls come from the whole dose curve; as a rule, active = well fitted inhibition curve with a large enough effect; inconclusive = small, poorly fitted or top-dose-only effect; inactive = flat fitted curve, though single readings scatter. No potency is given beside an inconclusive call; the fits are too rough.
% is set by controls: 0 for no effect and ±100 for the full control effect; potency is the fitted concentration of half-maximal effect; tags give direction and shape of the fitted curve.

Experiment: qHTS for Inhibitors of human tyrosyl-DNA phosphodiesterase 1 (TDP1): qHTS in cells in presence of CPT; note: nearly all actives have a fitted effect of over 55% in size
Settings: chicken DT40 Tdp1-/-;hTDP1 cells + 20 nM CPT, ATP luminescence, 48 h; activity change, negative = growth inhibition: at 46.2 µM (top of the series) unless noted
Summary of the method: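 Cell growth measured by CellTiter-Glo luminescence after a minimum 48 h, 37 C compound exposure with 20 nM CPT in Tdp1-knockout DT40 cells stably expressing hTDP1, seeded 400/well; qHTS titration format.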
In the case of `CCOc1ccc(CNC(=O)C2CCCN(S(=O)(=O)N(CC)c3ccc(OCC)cc3)C2)cc1` (stereo not given), the Potency is reported as inconclusive [inhibitor, single point]. For `COc1ccc(-n2ncc(C(=O)Nc3ccc4c(c3)OCCO4)c2C2CCN(C(=O)OC(C)(C)C)CC2)cc1`, the Potency was active: 20.6 µM. With `C=CCNc1ncnc2c1ncn2[C@H]1CN(Cc2cc(OC)c(OC)c(OC)c2)C[C@@H](CO)O1` the “activity change, negative = growth inhibition” value was inactive: 1.42%. In the case of `COc1ccc(/C=C/C(=O)Nc2ccc(S(=O)(=O)N3CCOCC3)cc2)c(OC)c1`, the Potency is reported as inconclusive [inhibitor, partial curve]. In the case of `CCn1c(=O)n(CC)c2cc(N3CCCC3)c(NC(=O)c3cccc(Cl)c3)cc21`, the Potency is reported as active: 14.6 µM. For `Cc1ccc(-c2nc(NCCCO)c3ccccc3n2)cc1`, the Potency was inconclusive [inhibitor, single point]. For `O=C1[C@H](Oc2ccccc2)[C@@H](c2ccccc2)N1c1ccncc1`, the Potency was inconclusive [inhibitor, partial curve, poor fit]. With `Cc1ccc(NC(=O)CC2=NC(=O)C(CC(=O)Nc3ccccc3F)S2)cc1` (stereo not given) the Potency was inconclusive [inhibitor, single point]. For `Cc1cc(C)cc(N(CC(=O)NCc2ccc(F)cc2)C(=O)c2snc(C(N)=O)c2N)c1`, the activity change, negative = growth inhibition was inconclusive: -30.8% [inhibitor]. For `CCc1cccc(C)c1N(C(=O)Cn1c(COC)nc2ccccc21)C(C)COC` (stereo not given), the Potency was inconclusive [inhibitor, full curve]. For `CCOC(=O)c1c(-c2ccccc2Cl)csc1NC(=O)c1cc(S(=O)(=O)N2CCOCC2)ccc1C`, the Potency was active: 10.3 µM. With `Cc1ccc(-n2c(C)cc(/C=C3/C(=N)N4C(c5ccccc5)=CSC4=NC3=O)c2C)cc1` the Potency was inconclusive [inhibitor, single point]. For `O=C1CCC(c2ccc3ccccc3c2)O1` (stereo not given), the activity change, negative = growth inhibition was inconclusive: -24% [inhibitor]. In the case of `CCOc1cc(C(=O)NC(=S)Nc2cccnc2)cc(OCC)c1OCC`, the Potency is reported as inconclusive [inhibitor, single point]. In the case of `Cc1ccc(S(=O)(=O)N2CCC(C(=O)Nc3ccc(Oc4ccccc4)cc3)CC2)cc1`, the Potency is reported as inconclusive [inhibitor, single point]. With `CC1(C)CC(=O)C(C=NCC2CCN(C(=S)Nc3ccccc3)CC2)=C(O)C1` the “activity change, negative = growth inhibition” value was inactive: -0.504%. In the case of `CN(CC(=O)Nc1ccccc1Cl)C(=O)COC(=O)c1nc(Cl)c(Cl)c(Cl)c1Cl`, the Potency is reported as inconclusive [inhibitor, single point]. For `COc1ccccc1OCCNC(=O)c1ccccc1C`, the “activity change, negative = growth inhibition” value was inactive: -14.6%. In the case of `O=C(NCCN1CCOCC1)c1ccc2ccccc2c1`, the Potency is reported as active: 20.6 µM. In the case of `CCN1C(=O)C2(C(C#N)=C(N)Oc3n[nH]c(C(C)C)c32)c2ccccc21` (stereo not given), the “activity change, negative = growth inhibition” value is reported as inactive: -23.9%. In the case of `COc1ccc(-c2cn3c(n2)CCC3)cc1`, the “activity change, negative = growth inhibition” value is reported as inactive: -6.24%. In the case of `CC(C)Cn1c(=O)c2ccccc2n2c(CCC(=O)Nc3ccc(F)c(F)c3)nnc12`, the Potency is reported as inconclusive [inhibitor, partial curve]. With `CCN(C(=O)Cn1nc(Cc2ccncc2)c2ccccc2c1=O)c1cccc(C(F)(F)F)c1` the Potency was inconclusive [inhibitor, single point]. With `O=C(Cn1cc(S(=O)(=O)Cc2ccccc2F)c2ccccc21)NCc1ccccc1Cl` the Potency was inconclusive [inhibitor, single point]. With `O=C(NCc1ccco1)C1CCCN1C(=O)Nc1ccc(Cl)cc1` (stereo not given) the Potency was inconclusive [inhibitor, single point]. In the case of `Cc1ccc(CN2[C@H](C)[C@H](c3ccccc3)OCCS2(=O)=O)cc1`, the Potency is reported as inconclusive [inhibitor, single point]. In the case of `CC(OC(=O)c1oc2ccccc2c1COc1ccccc1)C(N)=O` (stereo not given), the Potency is reported as inconclusive [inhibitor, partial curve, poor fit]. With `Cc1noc(C)c1C(=O)N1CCN(Cc2ccccc2)CC1` the Potency was inconclusive [inhibitor, single point]. For `O=C(Nc1ccc(N2CCOCC2)c(Cl)c1)c1ccc(Br)o1`, the Potency was inconclusive [inhibitor, single point]. For `O=C1[C@@H]2[C@H](C(=O)N1CC(O)COCc1ccccc1)C1C=C[C@H]2C1` (stereo not given in full), the “activity change, negative = growth inhibition” value was inactive: -0.625%. For `CNc1ncnc(Sc2nc(N)nc3nc[nH]c23)c1[N+](=O)[O-]`, the Potency was active: 2.06 µM. In the case of `Cc1ccc(-c2nnc(COC(=O)c3cc(=O)[nH]c4ccccc34)o2)cc1`, the “activity change, negative = growth inhibition” value is reported as inactive: 10.4%. With `O=C(CNC(=O)c1ccc(Cl)cc1)OCN1C(=O)c2ccccc2C1=O` the Potency was inconclusive [inhibitor, full curve, poor fit]. In the case of `N#CCC1c2ccccc2CCN1C(=O)Nc1cccc(Cl)c1` (stereo not given), the activity change, negative = growth inhibition is reported as inconclusive: -33.3% [inhibitor]. With `CCN1CCN(C(=O)CCN2C(=O)c3ccccc3S2(=O)=O)CC1` the “activity change, negative = growth inhibition” value was inactive: 1.48%. For `CC(C)CSc1ccccc1NC(=O)c1sc2nc(-c3ccncc3)ccc2c1N`, the Potency was active: 5.8 µM. In the case of `CCc1nnc(NC(=O)CCC(=O)N2CCN(Cc3ccc(Cl)cc3)CC2)s1`, the Potency is reported as active: 18.4 µM. With `COc1ccc(N(CC(=O)NCc2ccccc2)S(=O)(=O)c2c(C)n[nH]c2C)cc1` the Potency was active: 20.6 µM. For `Cc1[nH]c2ccccc2c1C(=O)COC(=O)c1ccc([N+](=O)[O-])s1`, the Potency was inconclusive [inhibitor, single point]. With `O=C(C1CCC(CNc2nc(=S)[nH]c3ccccc23)CC1)N1CCN(c2ccc(F)cc2)CC1` (stereo not given) the Potency was active: 2.59 µM. In the case of `CN(C)/C=C/C(=O)c1ccncc1`, the “activity change, negative = growth inhibition” value is reported as inactive: -2.93%. For `C[C@H](CO)N1C[C@H](C)[C@@H](CN(C)S(=O)(=O)c2cn(C)cn2)Oc2ccc(NC(=O)C3CCCCC3)cc2C1=O`, the “activity change, negative = growth inhibition” value was inactive: 2.59%. For `O=S1(=O)CC(N2CC=CC2)CN1C1CCCCC1` (stereo not given), the Potency was inconclusive [inhibitor, single point]. In the case of `COc1ccc(CNC(=O)c2cccc(S(=O)(=O)N3CCN(c4ccc(F)cc4)CC3)c2)cc1`, the Potency is reported as inconclusive [inhibitor, single point]. For `CCCOc1ccc(-c2nc(N3CCN(CC)CC3)c3ccccc3n2)cc1`, the Potency was inconclusive [inhibitor, single point].
